The supplement of paper PMC4604168 (melanoma cell lines)
Some of the results follow. Repeats are few or missing, and single values can be far off.

These compounds were tested on WM1716 (assay: cell count relative to DMSO control; melanoma cells; higher = more viable cells). Conditions: library dose: low library concentration; 72 h.
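Note: cell number obtained by counting DAPI-stained nuclei in high-throughput microscope images with image analysis software, screen run in 1,536-well plates.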

| SMILES | cell count [%] |
| --- | --- |
| CC(=O)c1c(C)c2cnc(Nc3ccc(N4CCNCC4)cn3)nc2n(C2CCCC2)c1=O [palbociclib] + Cn1cc(/C=C2\C(=O)Nc3cccnc32)c2ccccc21 [GW441756] (first compound 0.04 µM, partner dose 0.4 µM) | 58 |
| CO[C@H]1C[C@@H]2CC[C@@H](C)[C@@](O)(O2)C(=O)C(=O)N2CCCC[C@H]2C(=O)O[C@H]([C@H](C)C[C@@H]2CC[C@@H](OCCO)[C@H](OC)C2)CC(=O)[C@H](C)/C=C(\C)[C@@H](O)[C@@H](OC)C(=O)[C@H](C)C[C@H](C)/C=C/C=C/C=C/1C [everolimus] + Cn1nnc2c(C(N)=O)ncn2c1=O [temozolomide] (first compound 0.02 µM, partner dose 2 µM) | 77 |
| CC(=O)O[C@@]12CO[C@@H]1C[C@H](O)[C@@]1(C)C(=O)[C@H](O)C3=C(C)[C@@H](OC(=O)[C@H](O)[C@@H](NC(=O)OC(C)(C)C)c4ccccc4)C[C@@](O)([C@@H](OC(=O)c4ccccc4)[C@H]21)C3(C)C [Docetaxel] + NC(=O)Nc1cc(-c2cccc(F)c2)sc1C(=O)N[C@H]1CCCNC1 [AZD7762] (first compound 0.0001 µM, partner dose 0.02 µM) | 30.2 |
| Nc1nc(F)nc2c1ncn2[C@@H]1O[C@H](CO)[C@@H](O)[C@@H]1O [fludarabine] + C=CCn1c(=O)c2cnc(Nc3ccc(N4CCN(C)CC4)cc3)nc2n1-c1cccc(C(C)(C)O)n1 [MK1775] (first compound 0.2 µM, partner dose 0.02 µM) | 86.2 |
| Nc1ccn([C@@H]2O[C@H](CO)[C@@H](O)C2(F)F)c(=O)n1 [gemcitabine] + COc1ccc(COc2ccc(Cc3cnc(N)nc3N)cc2OC)cc1 [GW2580] (first compound 0.0004 µM, partner dose 1 µM) | 102 |
| Nc1ncn([C@H]2C[C@H](O)[C@@H](CO)O2)c(=O)n1 [decitabine] + CC(C)(C)c1cnc(CSc2cnc(NC(=O)C3CCNCC3)s2)o1 [SNS-032] (first compound 0.1 µM, partner dose 0.01 µM) | 78.4 |
| Nc1nc(F)nc2c1ncn2[C@@H]1O[C@H](CO)[C@@H](O)[C@@H]1O [fludarabine] + Nc1ncn([C@H]2C[C@H](O)[C@@H](CO)O2)c(=O)n1 [decitabine] (first compound 0.2 µM, partner dose 0.1 µM) | 82 |
| CC(=O)O[C@@]12CO[C@@H]1C[C@H](O)[C@@]1(C)C(=O)[C@H](O)C3=C(C)[C@@H](OC(=O)[C@H](O)[C@@H](NC(=O)OC(C)(C)C)c4ccccc4)C[C@@](O)([C@@H](OC(=O)c4ccccc4)[C@H]21)C3(C)C [Docetaxel] + O=C(O)C(=O)Nc1sc2c(c1C(=O)O)CCNC2 [TCS401] (first compound 0.0001 µM, partner dose 1.66667 µM) | 49.6 |
| Nc1ccn([C@@H]2O[C@H](CO)[C@@H](O)C2(F)F)c(=O)n1 [gemcitabine] + CCN(CC)CCCCNc1ncc2cc(-c3cc(OC)cc(OC)c3)c(NC(=O)NC(C)(C)C)nc2n1 [PD173074] (first compound 0.0004 µM, partner dose 0.1 µM) | 114 |
| CC(=O)c1c(C)c2cnc(Nc3ccc(N4CCNCC4)cn3)nc2n(C2CCCC2)c1=O [palbociclib] + CCN(CC)CCCCNc1ncc2cc(-c3cc(OC)cc(OC)c3)c(NC(=O)NC(C)(C)C)nc2n1 [PD173074] (first compound 0.04 µM, partner dose 0.1 µM) | 69.5 |
| Nc1ncn([C@H]2C[C@H](O)[C@@H](CO)O2)c(=O)n1 [decitabine] + COc1cc2c(Oc3ccc4[nH]c(C)cc4c3F)ncnc2cc1OCCCN1CCCC1 [cediranib] (first compound 0.1 µM, partner dose 0.4 µM) | 87.8 |
| CC(=O)c1c(C)c2cnc(Nc3ccc(N4CCNCC4)cn3)nc2n(C2CCCC2)c1=O [palbociclib] + Cc1nc(Nc2ncc(C(=O)Nc3c(C)cccc3Cl)s2)cc(N2CCN(CCO)CC2)n1 [dasatanib] (first compound 0.04 µM, partner dose 0.004 µM) | 56.9 |
| CO[C@H]1C[C@@H]2CC[C@@H](C)[C@@](O)(O2)C(=O)C(=O)N2CCCC[C@H]2C(=O)O[C@H]([C@H](C)C[C@@H]2CC[C@@H](OCCO)[C@H](OC)C2)CC(=O)[C@H](C)/C=C(\C)[C@@H](O)[C@@H](OC)C(=O)[C@H](C)C[C@H](C)/C=C/C=C/C=C/1C [everolimus] + C=CCNC1=C2C[C@@H](C)C[C@H](OC)[C@H](O)[C@@H](C)/C=C(\C)[C@H](OC(N)=O)[C@@H](OC)/C=C\C=C(/C)C(=O)NC(=CC1=O)C2=O [Tanespimycin] (first compound 0.02 µM, partner dose 0.002 µM) | 78.1 |
| CC(=O)O[C@@]12CO[C@@H]1C[C@H](O)[C@@]1(C)C(=O)[C@H](O)C3=C(C)[C@@H](OC(=O)[C@H](O)[C@@H](NC(=O)OC(C)(C)C)c4ccccc4)C[C@@](O)([C@@H](OC(=O)c4ccccc4)[C@H]21)C3(C)C [Docetaxel] + Cc1ccc(NC(=O)c2cccc(N(C)C)c2)cc1NC(=O)c1ccc(O)cc1 [ZM336372] (first compound 0.0001 µM, partner dose 2 µM) | 38.7 |
| CC(=O)O[C@@]12CO[C@@H]1C[C@H](O)[C@@]1(C)C(=O)[C@H](O)C3=C(C)[C@@H](OC(=O)[C@H](O)[C@@H](NC(=O)OC(C)(C)C)c4ccccc4)C[C@@](O)([C@@H](OC(=O)c4ccccc4)[C@H]21)C3(C)C [Docetaxel] + O=C1NC(=O)/C(=C/c2ccc(-c3ccc(F)cc3O)o2)S1 [AS252424] (first compound 0.0001 µM, partner dose 1 µM) | 38.6 |
| Nc1ncn([C@H]2C[C@H](O)[C@@H](CO)O2)c(=O)n1 [decitabine] + C[C@]1(c2nc3c(C(N)=O)cccc3[nH]2)CCCN1 [Veliparib] (first compound 0.1 µM, partner dose 1.4 µM) | 78.7 |
| Nc1ncn([C@H]2C[C@H](O)[C@@H](CO)O2)c(=O)n1 [decitabine] + COc1ccc(Cl)c(Nc2nc3ccccc3nc2NS(=O)(=O)c2cccc(NC(=O)C(C)(C)N)c2)c1 [XL147] (first compound 0.1 µM, partner dose 0.8 µM) | 71.9 |
| CO[C@H]1C[C@@H]2CC[C@@H](C)[C@@](O)(O2)C(=O)C(=O)N2CCCC[C@H]2C(=O)O[C@H]([C@H](C)C[C@@H]2CC[C@@H](OCCO)[C@H](OC)C2)CC(=O)[C@H](C)/C=C(\C)[C@@H](O)[C@@H](OC)C(=O)[C@H](C)C[C@H](C)/C=C/C=C/C=C/1C [everolimus] + N#Cc1c(O)c2c(-c3ccc(-c4ccccc4O)cc3)csc2[nH]c1=O [A769662] (first compound 0.02 µM, partner dose 2 µM) | 70.8 |
| Nc1ccn([C@@H]2O[C@H](CO)[C@@H](O)C2(F)F)c(=O)n1 [gemcitabine] + OCc1c[nH]c2ccccc12 [Indole-3-carbinol] (first compound 0.0004 µM, partner dose 0.8 µM) | 88.1 |
| CO[C@H]1C[C@@H]2CC[C@@H](C)[C@@](O)(O2)C(=O)C(=O)N2CCCC[C@H]2C(=O)O[C@H]([C@H](C)C[C@@H]2CC[C@@H](OCCO)[C@H](OC)C2)CC(=O)[C@H](C)/C=C(\C)[C@@H](O)[C@@H](OC)C(=O)[C@H](C)C[C@H](C)/C=C/C=C/C=C/1C [everolimus] + Oc1cc(-c2nc(-c3ccccc3)[nH]c2-c2ccncc2)ccc1Cl [L779450] (first compound 0.02 µM, partner dose 0.2 µM) | 80.7 |
| Nc1nc(F)nc2c1ncn2[C@@H]1O[C@H](CO)[C@@H](O)[C@@H]1O [fludarabine] + NC(=O)Nc1cc(-c2cccc(F)c2)sc1C(=O)N[C@H]1CCCNC1 [AZD7762] (first compound 0.2 µM, partner dose 0.02 µM) | 83.8 |
| Nc1nc(F)nc2c1ncn2[C@@H]1O[C@H](CO)[C@@H](O)[C@@H]1O [fludarabine] + COc1cc(Nc2ncc(F)c(Nc3ccc4c(n3)NC(=O)C(C)(C)O4)n2)cc(OC)c1OC [Tamatinib] (first compound 0.2 µM, partner dose 0.4 µM) | 108 |
| Nc1ccn([C@@H]2O[C@H](CO)[C@@H](O)C2(F)F)c(=O)n1 [gemcitabine] + O=C(Nc1cccc(Cl)c1)Nc1ncc(CCNc2ncnc3ccsc23)s1 [SNS314] (first compound 0.0004 µM, partner dose 0.0008 µM) | 114 |
| CC(=O)O[C@@]12CO[C@@H]1C[C@H](O)[C@@]1(C)C(=O)[C@H](O)C3=C(C)[C@@H](OC(=O)[C@H](O)[C@@H](NC(=O)OC(C)(C)C)c4ccccc4)C[C@@](O)([C@@H](OC(=O)c4ccccc4)[C@H]21)C3(C)C [Docetaxel] + CC(C)C[C@H](NC(=O)[C@H](Cc1ccccc1)NC(=O)c1cnccn1)B(O)O [Bortezomib] (first compound 0.0001 µM, partner dose 0.001 µM) | 31.5 |
| Nc1nc(F)nc2c1ncn2[C@@H]1O[C@H](CO)[C@@H](O)[C@@H]1O [fludarabine] + Cn1c(Nc2ccc(C(F)(F)F)cc2)nc2cc(Oc3ccnc(-c4ncc(C(F)(F)F)[nH]4)c3)ccc21 [CHIR265] (first compound 0.2 µM, partner dose 0.08 µM) | 82 |
